# ± gives the standard deviation of the averaged measurements. In all, about 2,900 compounds were measured (“NF-kB SEAP reporter activity, fold change vs agonist alone”: median about 0.99, highest 2% from about 2.6 on). This is one part of the list.
# Legend:
# RAW-Dual [1] = assay: NF-kB SEAP reporter activity, fold change vs agonist alone; cytotoxicity flag (confluency mask): not cytotoxic; higher = enhanced NF-kB activity
# How it was run: (§1)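 RAW-Dual macrophages (50,000 cells/well in DMEM, 384-well plates) received 50 nL of library stock by pin tool, then a PRR agonist 1 h later, and were kept at 37 °C, 5% CO2. After 20 hours, supernatant was read for IRF by QuantiLuc luminescence and for NF-κB by QuantiBlue absorbance at 620 nm. Reporter activity is fold change over agonist-alone wells. Cytotoxic wells had IncuCyte confluency below 70% of agonist controls in both mask sets.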
# RAW-Dual [2] = assay: NF-kB SEAP reporter activity, fold change vs agonist alone; higher = enhanced NF-kB activity; conditions: library stock concentration (final ~1000-fold dilution): 10 mM
# How it was run: as §1
# RAW-Dual [3] = assay: NF-kB SEAP reporter activity, fold change vs agonist alone; cytotoxicity flag (confluency mask): cytotoxic (confluency <70% of control); higher = enhanced NF-kB activity
# How it was run: as §1
# [4] = agonist: ODN 1826 (TLR9) 0.5 ug/mL
# [5] = agonist: Pam2CSK4 (TLR2/6) 0.1 ug/mL
# [6] = agonist: Pam3CSK4 (TLR2/1) 0.1 ug/mL
# [7] = cytotoxicity flag (confluency mask): not cytotoxic, agonist: Imiquimod (TLR7) […]
# [8] = cytotoxicity flag (confluency mask): not cytotoxic, agonist: MPLA (TLR4) […]
# [9] = cytotoxicity flag (confluency mask): cytotoxic (confluency <70% of control), agonist: Imiquimod (TLR7) […]
# [10] = cytotoxicity flag (confluency mask): cytotoxic (confluency <70% of control), agonist: MPLA (TLR4) […]
smiles,measurement,setting,value
CNC(=O)c1cc(Oc2ccc(NC(=O)Nc3ccc(Cl)c(C(F)(F)F)c3)cc2)ccn1 (library stock concentration (final ~1000-fold dilution): 10 mM),NF-kB SEAP reporter activity,RAW-Dual [1]; agonist: LPS (TLR4) 0.1 ug/mL,1.11
same,NF-kB SEAP reporter activity,RAW-Dual [1]; [4],0.911
same,NF-kB SEAP reporter activity,RAW-Dual [1]; [5],0.194
same,NF-kB SEAP reporter activity,RAW-Dual [1]; [6],0.258
Cc1ccc(S(=O)(=O)Cc2nc(-c3ccc(C(=O)NCc4cccnc4)cc3)oc2C)cc1,NF-kB SEAP reporter activity,RAW-Dual [2]; [7],1.16
same,NF-kB SEAP reporter activity,RAW-Dual [2]; [8],0.965
Cc1ccc(S(=O)(=O)Cc2nc(-c3ccc(C(=O)NCc4cccnc4)cc3)oc2C)cc1 (library stock concentration (final ~1000-fold dilution): 10 mM),NF-kB SEAP reporter activity,RAW-Dual [1]; agonist: LPS (TLR4) 0.1 ug/mL,1.75
same,NF-kB SEAP reporter activity,RAW-Dual [1]; [4],1.62
same,NF-kB SEAP reporter activity,RAW-Dual [1]; [5],0.917
same,NF-kB SEAP reporter activity,RAW-Dual [1]; [6],0.758
CCn1cc(C(=O)O)c(=O)c2c(N)c(F)c(NC3CCCCC3)cc21,NF-kB SEAP reporter activity,RAW-Dual [2]; [7],1.75
same,NF-kB SEAP reporter activity,RAW-Dual [2]; [8],1.95
CCn1cc(C(=O)O)c(=O)c2c(N)c(F)c(NC3CCCCC3)cc21 (library stock concentration (final ~1000-fold dilution): 10 mM),NF-kB SEAP reporter activity,RAW-Dual [1]; agonist: LPS (TLR4) 0.1 ug/mL,4.89
same,NF-kB SEAP reporter activity,RAW-Dual [1]; [4],2.9
same,NF-kB SEAP reporter activity,RAW-Dual [1]; [5],1.85
same,NF-kB SEAP reporter activity,RAW-Dual [1]; [6],3.32
O=C1CC(c2ccc(O)cc2)Oc2cc(O)cc(O)c21 (stereo unspecified) (library stock concentration (final ~1000-fold dilution): 10 mM),NF-kB SEAP reporter activity,RAW-Dual [1]; agonist: LPS (TLR4) 0.1 ug/mL,1.63
same,NF-kB SEAP reporter activity,RAW-Dual [1]; [4],1.21
same,NF-kB SEAP reporter activity,RAW-Dual [1]; [5],0.926
same,NF-kB SEAP reporter activity,RAW-Dual [1]; [6],1.32
O=C1CC(c2ccc(O)cc2)Oc2cc(O)cc(O)c21 (stereo unspecified),NF-kB SEAP reporter activity,RAW-Dual [2]; [7],1.22
same,NF-kB SEAP reporter activity,RAW-Dual [2]; [8],1.15
COc1cc(-c2oc3cc(O)cc(O)c3c(=O)c2O)ccc1O,NF-kB SEAP reporter activity,RAW-Dual [2]; [7],1.2 ± 0.064
same,NF-kB SEAP reporter activity,RAW-Dual [2]; [8],1.738 ± 0.0039
COc1cc(-c2oc3cc(O)cc(O)c3c(=O)c2O)ccc1O (library stock concentration (final ~1000-fold dilution): 10 mM),NF-kB SEAP reporter activity,RAW-Dual [1]; agonist: LPS (TLR4) 0.1 ug/mL,1.57 ± 0.059
same,NF-kB SEAP reporter activity,RAW-Dual [1]; [4],0.925 ± 0.031
same,NF-kB SEAP reporter activity,RAW-Dual [1]; [5],0.969 ± 0.0099
same,NF-kB SEAP reporter activity,RAW-Dual [1]; [6],1.23 ± 0.064
CNCCCC12CCC(c3ccccc31)c1ccccc12.Cl (library stock concentration (final ~1000-fold dilution): 10 mM),NF-kB SEAP reporter activity,RAW-Dual [1]; agonist: LPS (TLR4) 0.1 ug/mL,1.55
same,NF-kB SEAP reporter activity,RAW-Dual [1]; [4],0.443
same,NF-kB SEAP reporter activity,RAW-Dual [1]; [5],0.537
same,NF-kB SEAP reporter activity,RAW-Dual [1]; [6],0.603
CNCCCC12CCC(c3ccccc31)c1ccccc12.Cl,NF-kB SEAP reporter activity,RAW-Dual [2]; [7],1.4
same,NF-kB SEAP reporter activity,RAW-Dual [2]; [8],1.37
CS(=O)(=O)O.CS(=O)(=O)O.N=C(N)Nc1ccc(C(=O)Oc2ccc3cc(C(=N)N)ccc3c2)cc1 (library stock concentration (final ~1000-fold dilution): 10 mM),NF-kB SEAP reporter activity,RAW-Dual [1]; agonist: LPS (TLR4) 0.1 ug/mL,1.08
same,NF-kB SEAP reporter activity,RAW-Dual [1]; [4],1.05
same,NF-kB SEAP reporter activity,RAW-Dual [1]; [5],1.02
same,NF-kB SEAP reporter activity,RAW-Dual [1]; [6],0.924
CS(=O)(=O)O.CS(=O)(=O)O.N=C(N)Nc1ccc(C(=O)Oc2ccc3cc(C(=N)N)ccc3c2)cc1,NF-kB SEAP reporter activity,RAW-Dual [2]; [7],1.01
same,NF-kB SEAP reporter activity,RAW-Dual [2]; [8],1.02
CN1CCC(=C2c3ccccc3C=Cc3ccccc32)CC1.Cl (library stock concentration (final ~1000-fold dilution): 10 mM),NF-kB SEAP reporter activity,RAW-Dual [1]; agonist: LPS (TLR4) 0.1 ug/mL,1.41
same,NF-kB SEAP reporter activity,RAW-Dual [1]; [4],0.731
same,NF-kB SEAP reporter activity,RAW-Dual [1]; [5],0.752
same,NF-kB SEAP reporter activity,RAW-Dual [1]; [6],0.899
CN1CCC(=C2c3ccccc3C=Cc3ccccc32)CC1.Cl,NF-kB SEAP reporter activity,RAW-Dual [2]; [7],1.53
same,NF-kB SEAP reporter activity,RAW-Dual [2]; [8],1.1
Cc1ncc(-c2ccnc(Nc3ccc(S(C)(=O)=O)cc3)n2)n1C(C)C (library stock concentration (final ~1000-fold dilution): 10 mM),NF-kB SEAP reporter activity,RAW-Dual [1]; agonist: LPS (TLR4) 0.1 ug/mL,0.247
same,NF-kB SEAP reporter activity,RAW-Dual [1]; [4],0.908
same,NF-kB SEAP reporter activity,RAW-Dual [1]; [5],0.139
same,NF-kB SEAP reporter activity,RAW-Dual [1]; [6],0.941
Cc1ncc(-c2ccnc(Nc3ccc(S(C)(=O)=O)cc3)n2)n1C(C)C,NF-kB SEAP reporter activity,RAW-Dual [2]; [7],0.914
same,NF-kB SEAP reporter activity,RAW-Dual [2]; [8],0.947
CCc1ccc(-c2nc(CSCC(=O)NCCc3ccccc3)c(C)o2)cc1,NF-kB SEAP reporter activity,RAW-Dual [2]; [7],0.991
same,NF-kB SEAP reporter activity,RAW-Dual [2]; [8],1.06
CCc1ccc(-c2nc(CSCC(=O)NCCc3ccccc3)c(C)o2)cc1 (library stock concentration (final ~1000-fold dilution): 10 mM),NF-kB SEAP reporter activity,RAW-Dual [1]; agonist: LPS (TLR4) 0.1 ug/mL,1.09
same,NF-kB SEAP reporter activity,RAW-Dual [1]; [4],0.643
same,NF-kB SEAP reporter activity,RAW-Dual [1]; [5],0.64
same,NF-kB SEAP reporter activity,RAW-Dual [1]; [6],0.791
CCCCCCCCCC(=O)OC1(c2ccc(Cl)cc2)CCN(CCCC(=O)c2ccc(F)cc2)CC1 (library stock concentration (final ~1000-fold dilution): 10 mM),NF-kB SEAP reporter activity,RAW-Dual [1]; agonist: LPS (TLR4) 0.1 ug/mL,1.14
same,NF-kB SEAP reporter activity,RAW-Dual [1]; [4],1.04
same,NF-kB SEAP reporter activity,RAW-Dual [1]; [5],1.06
same,NF-kB SEAP reporter activity,RAW-Dual [1]; [6],1.26
CCCCCCCCCC(=O)OC1(c2ccc(Cl)cc2)CCN(CCCC(=O)c2ccc(F)cc2)CC1,NF-kB SEAP reporter activity,RAW-Dual [2]; [7],0.904
same,NF-kB SEAP reporter activity,RAW-Dual [2]; [8],1.03
CC(O)Cn1cnc2c1c(=O)n(C)c(=O)n2C (stereo unspecified),NF-kB SEAP reporter activity,RAW-Dual [2]; [8],0.976
CC(O)Cn1cnc2c1c(=O)n(C)c(=O)n2C (stereo unspecified) (library stock concentration (final ~1000-fold dilution): 10 mM),NF-kB SEAP reporter activity,RAW-Dual [1]; agonist: LPS (TLR4) 0.1 ug/mL,1.09
same,NF-kB SEAP reporter activity,RAW-Dual [1]; [4],0.96
same,NF-kB SEAP reporter activity,RAW-Dual [1]; [5],1.02
same,NF-kB SEAP reporter activity,RAW-Dual [1]; [6],0.908
COCCNCCc1cccc(Nc2ncc3c(n2)-c2ccccc2C(c2ccccc2F)C3)c1 (stereo unspecified) (library stock concentration (final ~1000-fold dilution): 10 mM),NF-kB SEAP reporter activity,RAW-Dual [3]; agonist: LPS (TLR4) 0.1 ug/mL,0.391
same,NF-kB SEAP reporter activity,RAW-Dual [3]; [4],0.296
same,NF-kB SEAP reporter activity,RAW-Dual [3]; [5],0.164
same,NF-kB SEAP reporter activity,RAW-Dual [3]; [6],0.345
COCCNCCc1cccc(Nc2ncc3c(n2)-c2ccccc2C(c2ccccc2F)C3)c1 (stereo unspecified),NF-kB SEAP reporter activity,RAW-Dual [2]; [9],1.33
same,NF-kB SEAP reporter activity,RAW-Dual [2]; [10],0.885
Cc1ccc2nc(CN(CCN(Cc3nc4ccc(C)cc4[nH]3)Cc3nc4ccc(C)cc4[nH]3)Cc3nc4ccc(C)cc4[nH]3)[nH]c2c1 (library stock concentration (final ~1000-fold dilution): 10 mM),NF-kB SEAP reporter activity,RAW-Dual [3]; agonist: LPS (TLR4) 0.1 ug/mL,0.204
same,NF-kB SEAP reporter activity,RAW-Dual [3]; [4],0.073
same,NF-kB SEAP reporter activity,RAW-Dual [3]; [5],0.0631
same,NF-kB SEAP reporter activity,RAW-Dual [3]; [6],0.122
Cc1ccc2nc(CN(CCN(Cc3nc4ccc(C)cc4[nH]3)Cc3nc4ccc(C)cc4[nH]3)Cc3nc4ccc(C)cc4[nH]3)[nH]c2c1,NF-kB SEAP reporter activity,RAW-Dual [2]; [9],0.0677
same,NF-kB SEAP reporter activity,RAW-Dual [2]; [10],0.0634
